The source of these data is US11730723B2, “Compounds and methods for treating viral infections” (priority 2020, dated 2023).

Molecules are shown by their SMILES. pIC50: −log10 of the molar value.

In this test the test system is dengue virus (DENV) serotype 2 strain D2Y98P. As to the kind of experiment: Dengue virus D2Y98P inhibition assay in Vero cells (immunostaining). The settings on record: read-out: D2Y98P IC50. Here is the method:
The antiviral activity of Compound 1 against two dengue virus (DENV) serotype 2 strains (D2Y98P and D2S221) was measured by the concentration of Compound 1 that inhibits 50% virus infectivity (IC50) for each strain.
A cytopathic (CPE)-based inhibition assay was conducted in Vero cells. Eight three-fold serial dilutions of test items in triplicate was evaluated against D2Y98P and D2S221.
The cells were fixed with ethanol/methanol for 30 minutes at −20° C., then the cells were washed 3× with DPBS before to remove the alcohol solution and cells were blocked by addition of 5% dry nonfat milk prepared in 1×DPBS (blocking buffer) for 30 minutes. Blocking buffer was removed from wells and 100 μL of the diluted primary antibody, 4G2 (1:2,000 in blocking buffer) was added to each well for two hours incubation at room temperature. Plates were washed three times with 1×DPBS. The secondary antibody, Goat Anti-Mouse IgG (H+L)-HRP Conjugate, was diluted 1:2,000 in blocking buffer and 100p L was added to each well for 1-hour incubation at room temperature. The secondary antibody was removed, and the plates were washed three times with 1×DPBS. TrueBlue peroxidase substrate (150 μL/well) was added for approximately 10 minutes (until plaques are visualized). The Bioreader 6000-Vα was used to count plaques.
Data were imported into Excel to calculate the ID50 values. The XLfit 5 plug-in was used with fit #205 (Levenberg-Marquardt algorithm) setting virus-only as 0% efficacy.

One may read the pIC50 as the negative decadic logarithm of the IC50, by convention in mol/L. As for `CCN(CC)CCNC(=O)c1c(C)[nH]c(/C=C2\C(=O)Nc3ccc(F)cc32)c1C` [Sunitinib], the pIC50 was 5.25.

Take `CC(C)C[C@](C)(N)COc1ccc(-c2ccnc(C(F)F)c2)nc1C(F)F` [Compound 1, (S)-1-((2′,6-bis(difluoromethyl)-[2,4′-bipyridin]-5-yl)oxy)-2,4-dimethylpentan-2-amine]: the pIC50 was 5.15.

With `NC(=O)c1ncn([C@@H]2O[C@H](CO)[C@@H](O)[C@H]2O)n1` [Ribavirin], the pIC50 was 3.92.

In the case of `CCN(CC)CCCC(C)Nc1ccnc2cc(Cl)ccc12` (stereo not shown) [Chloroquine diphosphate], the pIC50 is 4.93.
